Measured values from PubChem BioAssay (NCATS).
Values joined by “and” are separate entries in the source; they are usually repeats but may differ in a detail not shown here. Equal values may be shown once. Inconclusive means that the source gave no clear call. Such entries were picked first, then a sample of the others. A potency beside an inconclusive call is a rough fit, not a confirmed value. Active and inactive are the calls of the source. The call rests on the fitted dose curve; in most records, active means well fitted curve in the direction sought with a large enough effect; inconclusive means small, poorly fitted or top-dose-only effect, or another doubt; inactive means no such curve, though single readings can be large; an effect the other way counts as inactive or inconclusive.

What was measured:
[1] = Viability qHTS for spleen associated tyrosine kinase inhibitor (SYKi) naive MV4-11 cells (AID 1963823); conditions: MV4-11 AML viability, CellTiter-Glo luminescence, 72 h; viability (% of control): at 45 µM (top of the series); further: nearly all actives have a fitted effect of over 40% in size
How it was run: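 Read-out: CellTiter-Glo luminescence. Exposure: 72 hr, 37 C, 5% CO2, 95% humidity. Cells: MV4-11 without SYK inhibitor history, 500/well, qHTS format.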

[2] = Viability qHTS for spleen associated tyrosine kinase inhibitor (SYKi) drug resistant MV4-11 cells (AID 1963824); further: nearly all actives have a fitted effect of over 35% in size
How it was run: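 CellTiter-Glo luminescence, read 10 min after reagent addition, reports viability after a 72 hr compound exposure. Cells are an MV4-11 line made resistant to SYK inhibition, seeded at 500 per well onto compound-containing plates.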

[3] = Quantitative highthroughput screen to assess conditional lethalithy of NOMO1 cells grown in RPMI1640 with untreated serum (RPMI+s) (AID 1963876); conditions: NOMO1 AML cells in RPMI+serum, CellTiter-Glo viability, 48 h; viability: at 45.8 µM (top of the series); further: nearly all actives have a fitted effect of over 35% in size;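 on Viability: 100% = DMSO wells and 0% = empty wells without cells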
How it was run: (§1)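 Each medium arm—HPLM with 10% dialyzed FBS, or RPMI1640 with 5 mM glucose and 10% untreated or dialyzed FBS—was screened against an 11-point, 3-fold compound titration for 48 h at 37 °C, with CellTiter-Glo luminescence as endpoint.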

[4] = Quantitative highthroughput screen to assess conditional lethalithy of NOMO1 cells grown in RPMI1640 with dialyzed fetal bovine serum (RPMI+ds) (AID 1963877); further: nearly all actives have a fitted effect of over 30% in size
How it was run: as §1

[5] = Quantitative highthroughput screen to assess conditional lethalithy of P12 Ichikawa cells grown in Human Plasma-Like Medium with dialyzed fetal bovine serum (HPLM+ds) (AID 1963879); conditions: Potency: viability; further: nearly all actives have a fitted effect of over 35% in size
How it was run: as §1

[6] = Quantitative highthroughput screen to assess conditional lethalithy of P12 Ichikawa cells grown in RPMI1640 with dialyzed fetal bovine serum (RPMI+ds) (AID 1963880); conditions: Potency: P12-Ichikawa viability; further: nearly all actives have a fitted effect of over 35% in size
How it was run: as §1

[7] = Quantitative highthroughput screen to assess conditional lethalithy of SEM cells grown in Human Plasma-Like Medium with dialyzed fetal bovine serum (HPLM+ds) (AID 1963882); further: nearly all actives have a fitted effect of over 35% in size
How it was run: as §1

[8] = Quantitative highthroughput screen to assess conditional lethalithy of SEM cells grown in RPMI1640 with unreated serum (RPMI+s) (AID 1963883); conditions: SEM B-ALL cells, CellTiter-Glo viability, 48 h; viability: at 45.8 µM (top of the series); further: nearly all actives have a fitted effect of over 35% in size
How it was run: as §1

[9] = Quantitative highthroughput screen to assess conditional lethalithy of SEM cells grown in RPMI1640 with dialyzed fetal bovine serum (RPMI+ds) (AID 1963884); conditions: SEM B-ALL cells, RPMI+dialyzed FBS, CellTiter-Glo viability, 48 h; viability: at 45.8 µM (top of the series); further: nearly all actives have a fitted effect of over 35% in size
How it was run: as §1

[10] = Quantitative highthroughput screen to assess conditional lethalithy of P12 Ichikawa cells grown in RPMI1640 with untreated serum (RPMI+s) (AID 1963881); conditions: Potency: viability; further: nearly all actives have a fitted effect of over 35% in size
How it was run: as §1

[11] = Cellular viability qHTS for adrenocortical cancer (ACC) cell line SW-13 (AID 1963989); conditions: SW-13 ACC cells viability, CellTiter-Glo, 48 h; activity (max response): stronger effect = lower value; further: nearly all actives have a fitted effect of over 65% in size
How it was run: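 Luminescent ATP read-out (CellTiter-Glo, 20 min at room temperature) measured metabolically competent SW-13 cells after 48 h compound treatment. Final concentrations spanned up to 46 uM; bortezomib served as positive control.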

[12] = Cellular viability qHTS for adrenocortical cancer (ACC) cell line NCI-H295R (AID 1963990); conditions: CellTiter-Glo ATP luminescence, 48 h; activity change, negative = viability loss: at 46.1 µM (top of the series); further: nearly all actives have a fitted effect of over 60% in size;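 on activity change, negative = viability loss: 0% = DMSO only wells and -100% = full killing with cytotoxic reference compound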
How it was run: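 IC50 and maximal efficacy derive from four-parameter logistic modelling of titration curves, with reads scaled between DMSO-only wells (0%) and doxorubicin hydrochloride (100% inhibition). Compounds spanned up to 46 uM over 48 h.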
Potency means the concentration at half of the fitted maximal effect; tags describe the fitted curve by direction and shape.

| SMILES | Potency [1] | Potency [2] | viability [3] | Potency [4] | Potency [5] | Potency [6] | Potency [7] | Potency [8] | Potency [9] | Potency [3] | Potency [10] | Potency [11] | Potency [12] |
| --- | --- | --- | --- | --- | --- | --- | --- | --- | --- | --- | --- | --- | --- |
| CC(=O)Nc1sc2c(c1-c1nc3ccccc3s1)CNC2 | inconclusive: 3.26 µM [cytotoxic, full curve] | inconclusive: 4.11 µM [cytotoxic, full curve] | inconclusive: 60.9% [cytotoxic] | inconclusive: 33.2 µM [cytotoxic, partial curve, poor fit] | inactive | inconclusive: 20.9 µM [cytotoxic, single point] | active: 18.7 µM | inconclusive: 23.5 µM [cytotoxic, partial curve] | active: 18.7 µM |  |  |  |  |
| COc1cc2c(cc1OC)[C@@H]1C(=O)c3ccc4c(c3O[C@@H]1CO2)C=CC(C)(C)O4 | active: 103 nM and active: 93.4 nM | active: 146 nM and active: 166 nM |  | inconclusive: 26.4 µM [cytotoxic, single point] |  |  | inconclusive: 33.2 µM [cytotoxic, single point] |  |  | active: 23.5 µM |  |  |  |
| CO[C@@H]1C(N(C)C(=O)c2ccccc2)C[C@H]2O[C@]1(C)n1c3ccccc3c3c4c(c5c6ccccc6n2c5c31)C(=O)NC4=O (stereo partly drawn) | active: 0.148 µM | active: 0.332 µM |  | active: 14.8 µM | inconclusive: 11.8 µM [cytotoxic, partial curve] | inconclusive: 8.33 µM [cytotoxic, full curve] |  |  |  | active: 14.8 µM | inconclusive: 6.62 µM [cytotoxic, full curve] | inconclusive: 2.51 µM [cytotoxic, full curve] | inactive |
| CC(C)NC[C@@H](C(=O)N1CCN(c2ncnc3c2[C@H](C)C[C@H]3O)CC1)c1ccc(Cl)cc1 | inconclusive: 13.2 µM [cytotoxic, partial curve] | inconclusive: 11.8 µM [cytotoxic, partial curve] |  | inconclusive: 10.5 µM [cytotoxic, partial curve] | inconclusive: 7.43 µM [cytotoxic, partial curve] | inconclusive: 5.9 µM [cytotoxic, partial curve] | active: 0.296 µM |  |  | inconclusive: 14.8 µM [cytotoxic, partial curve] | inconclusive: 1.66 µM [cytotoxic, partial curve] | inconclusive: 25.1 µM [cytotoxic, single point] | inconclusive: 6.31 µM [cytotoxic, full curve, poor fit] |
| CC1=C(C(=O)Nc2cc3cn[nH]c3cc2F)C(c2ccc(C(F)(F)F)cc2)CC(=O)N1 (stereo not drawn) | inconclusive: 14.8 µM [cytotoxic, partial curve] and inconclusive: 29.1 µM [cytotoxic, single point] | inconclusive: 18.6 µM [cytotoxic, partial curve] and inconclusive: 16.4 µM [cytotoxic, partial curve] |  | inconclusive: 14.8 µM [cytotoxic, partial curve] | inconclusive: 11.8 µM [cytotoxic, partial curve] | inconclusive: 13.2 µM [cytotoxic, partial curve] |  | inconclusive: 10.5 µM [cytotoxic, full curve] | inconclusive: 9.35 µM [cytotoxic, full curve] | inconclusive: 20.9 µM [cytotoxic, partial curve] |  |  |  |
| CN(C)c1ccc2cc(C(=O)N[C@@H](CCCN=C(N)CCl)C(=O)NCc3ccccc3)ccc2c1 | active: 5.25 µM | active: 4.68 µM |  | inconclusive: 37.2 µM [cytotoxic, single point] | inconclusive: 29.6 µM [cytotoxic, single point] | inconclusive: 29.6 µM [cytotoxic, single point] | inconclusive: 29.6 µM [cytotoxic, single point] | active: 26.4 µM |  | inconclusive: 26.4 µM [cytotoxic, single point] | inconclusive: 26.4 µM [cytotoxic, single point] |  | inactive |
| CC(N)C12CC3CC(CC(C3)C1)C2 (stereo not drawn) | inactive and inconclusive: 20.9 µM [cytotoxic, partial curve] | inconclusive: 4.22 µM [cytotoxic, partial curve, poor fit] and inconclusive: 16.6 µM [cytotoxic, partial curve] |  | inconclusive: 9.35 µM [cytotoxic, full curve] |  | inconclusive: 33.2 µM [cytotoxic, single point] | inactive |  |  | inconclusive: 9.35 µM [cytotoxic, full curve] | inconclusive: 37.2 µM [cytotoxic, single point] |  |  |
